The campaign covered roughly 94,000 compounds. About 6,200 (6.6%) were called active. Inconclusive results, whose numbers are uncertain, are shown with a selection of clear calls. The call rests on the fitted dose curve; in most records, active means well fitted inhibition curve with a large enough effect; inconclusive means small, poorly fitted or top-dose-only effect; inactive means flat fitted curve, though single readings scatter. Potencies of inconclusive entries are doubtful fits and often do not repeat.
assay: Cytotoxic Profiling in HEK 293 Cell Line of Diverse Libraries Using Quantitative High-Throughput Screening; conditions: HEK 293 viability, ATP luminescence (CellTiter-Glo), 48-72 h; series mostly up to 115 µM; further: nearly all actives have a fitted effect of over 60% in size
How it was run: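 HEK 293 cells at 250 cells/well were exposed to compounds by pintool transfer for 48 or 72 hr at 37 degree Celsius, 5% CO2. Viability was read as ATP-coupled luminescence with CellTiter-Glo after 10 min at room temperature.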
Potency means the concentration at half of the fitted maximal effect; tags describe the fitted curve by direction and shape.

| SMILES | Potency |
| --- | --- |
| O=C([C@@H]1C[C@H](Oc2cccnc2)CN1C(=O)Cc1cccc(F)c1)N1CCCC1 | inactive |
| COCC(=O)NC[C@@H]1C=C(C)[C@H](Cc2nc3ccc(C)cc3[nH]2)C[C@H]1C(C)C | inconclusive: 20 µM [inhibitor, full curve, poor fit] |
| CC1=C(C(=O)N(C)C)C(c2ccc(Cl)cc2)N2C(CC(=O)NC(C)c3ccccc3)=CSC2=N1 (configuration not stated) | inconclusive: 89.1 µM [inhibitor, single point] |
| COC[C@@H]1CN(Cc2cccc(C)c2)C[C@H]1C(=O)NC1CC1 | inactive |
| Cn1nccc1C(=O)N[C@@H]1CN(Cc2ccccc2)C[C@H]1CO | inconclusive: 28.2 µM [inhibitor, partial curve, poor fit] |
| COc1ccc(C2Cn3cnc(C(=O)N4CCC(C(=O)Nc5ccc(Cl)cc5)CC4)c3CO2)cc1 (configuration not stated) | inconclusive: 39.8 µM [inhibitor, full curve, poor fit] |
| Cn1ccc2cc(-c3ccc4ncn(Cc5ccccn5)c(=O)c4n3)ccc21 | inactive |
| CC(C)CN(CC1CN(C(=O)Nc2ccccc2)CCO1)C(=O)c1ccccc1F (configuration not stated) | inconclusive: 89.1 µM [inhibitor, single point] |
| O=C1NC2(CCN(Cc3ccccc3C(F)(F)F)CC2)Oc2ccccc21 | active: 39.8 µM |
| CCOC(=O)c1ccc(N2CCN(CCC3c4cccnc4C(=O)N3c3c(C)cccc3C)CC2)cc1 (configuration not stated) | active: 35.5 µM |
| O=C(CCC[C@H]1NC[C@@H]2CC1CN(Cc1ccccc1)C2)NCCCN1CCCCC1 | inactive |
| Cc1ccc(C(=O)N2CCN(C(=O)c3nnn4c3COC(c3ccccc3)C4)CC2)cc1C (configuration not stated) | inconclusive: 50.1 µM [inhibitor, partial curve, poor fit] |
| CCN(CC)Cc1cnc2c(C(=O)NCC(C)c3ccccc3)cnn2c1 (configuration not stated) | inconclusive: 100 µM [inhibitor, single point] |
| CN(C)c1cccc(C(=O)NC2CCCN(c3cc(-c4ccccc4)[nH]n3)C2)c1 (configuration not stated) | inconclusive: 44.7 µM [inhibitor, partial curve] |
| CN(C1CCc2nn(C)c(=O)n2CC1)S(=O)(=O)c1cccc2cccnc12 (configuration not stated) | inactive |
| Cc1nccn1CC(=O)N1C[C@@H](COCC2CC2)[C@H](c2ccccn2)C1 | inactive |
| Cc1cc2ncc(C(=O)NCc3ccc(F)cc3)cn2n1 | inactive |
| O=C(Cc1c[nH]c2ncc(-c3ccccc3)cc12)NCC1CCOCC1 | active: 79.4 µM |
| O=[S+]1([O-])NCC2(CCN(CC3CCCCC3)C2)Nc2ccccc21 (configuration not stated) | inconclusive: 50.1 µM [inhibitor, partial curve, poor fit] |
| Clc1ccc2oc([C@H]3CCN(Cc4ccccc4)C3)nc2c1 | inconclusive: 112 µM [inhibitor, single point] |
| CN(CC1CCOC1)S(=O)(=O)c1ccccc1C(F)(F)F (configuration not stated) | inactive |
| O=C(NC1CCCc2c1[nH]c1ccc(F)cc21)c1cccs1 (configuration not stated) | inconclusive: 56.2 µM [inhibitor, partial curve, poor fit] |
| CC(=O)N1CC[C@H](c2nc3cc(C)ccc3o2)C1 | inactive |

| SMILES | Potency |
| --- | --- |
| COc1ncccc1-c1cnc2[nH]cc(CC(=O)Nc3nc(C)cs3)c2c1 | active: 35.5 µM |
| Cc1ccc(C(=O)N2CCC3(CC2)NC(=O)N(c2ccccc2Cl)N3)cc1C | inconclusive: 39.8 µM [inhibitor, partial curve] |
| COc1ccc(CN2CCNc3cnc(OCc4cccnc4)cc3C2)cc1O | inconclusive: 56.2 µM [inhibitor, full curve] |
| COc1ccccc1N1CCN(C(=O)c2cc3n(n2)CC(c2ccc(Cl)cc2)OC3)CC1 (configuration not stated) | inconclusive: 50.1 µM [inhibitor, partial curve, poor fit] |
| O=C(c1ccccc1Cl)N1CCN(C(=O)c2nnn3c2COC(c2ccccc2)C3)CC1 (configuration not stated) | inconclusive: 89.1 µM [inhibitor, single point] |
| O=C(c1c[nH]c2ncccc12)N1CCC(Cc2ccccc2)CC1 | inconclusive: 89.1 µM [inhibitor, partial curve, poor fit] |
| Cc1ccccc1CC(=O)N1CCC2(CC1)NC(=O)N(c1ccc(F)cc1)N2 | inconclusive: 31.6 µM [inhibitor, partial curve, poor fit] |
| CC(C)c1nc2c(c(-c3ccc(O)cc3)n1)CCN(C(=O)c1cccc(Cl)c1)CC2 | inconclusive: 56.2 µM [inhibitor, partial curve, poor fit] |
| O=C1NCCCCCCN(C(=O)Cc2ccccc2)[C@H]2CCCC[C@@H]12 | inconclusive: 79.4 µM [inhibitor, single point] |
| COc1ccc(CN2CCc3nc(C(C)C)nc(-c4ccc(O)cc4)c3C2)cc1 | inconclusive: 89.1 µM [inhibitor, single point] |
| O=C(CN1C(=O)NC2(CCCCC2)C1=O)N1CCCCC1 | inactive |
| CC(C)CCN1CCC2(C1)C(=O)N(c1ccccc1)c1ccccc12 (configuration not stated) | inconclusive: 89.1 µM [inhibitor, partial curve] |
| CC(C)N1CCN(C(=O)C2CCN(c3cnn(Cc4ccccc4)c(=O)c3)C2)CC1 (configuration not stated) | inactive |
| CNC(=O)N1CCC2(CC1)CC(N(Cc1ccc(F)cc1)C1CC1)CCO2 (configuration not stated) | inactive |
| COc1ccccc1-c1cc(C(=O)N(C)Cc2ccccc2)c2cnn(C)c2n1 | inconclusive: 79.4 µM [inhibitor, partial curve] |
| COc1ccc(C2(C(=O)NCCn3c(C)cnc3-c3cccnc3)CC2)cc1 | inactive |
| O=C(c1ccncc1)N1CC2CCC(C1)N2Cc1cccc(-c2ccsc2)c1 | inconclusive: 35.5 µM [inhibitor, partial curve, poor fit] |
| O=C(Nc1ncc(-c2cccc(F)c2)c2c1OCC2)c1c[nH]c2ccccc12 | active: 50.1 µM |
| O=C(CC1CNCCO1)NCc1nc(-c2cccc(F)c2)c(-c2ccccn2)[nH]1 (configuration not stated) | inconclusive: 89.1 µM [inhibitor, single point] |
| Cc1nc2cccnc2n1CC1CCCN(S(=O)(=O)c2cccc(Br)c2)C1 (configuration not stated) | active: 44.7 µM |
| N#Cc1ccc(CN2CCCC(c3nccn3Cc3ccccc3)C2)cc1 (configuration not stated) | inconclusive: 79.4 µM [inhibitor, partial curve] |
| CNC(=O)c1cc(C2CC2)nc2onc(C3CCN(C(=O)c4ccc(C(F)(F)F)cc4)C3)c12 (configuration not stated) | inconclusive: 50.1 µM [inhibitor, partial curve, poor fit] |
| O=C(NCC(F)F)c1cc(-c2cccc(C(F)(F)F)c2)c2nncn2n1 | inconclusive: 79.4 µM [inhibitor, partial curve, poor fit] |

| SMILES | Potency |
| --- | --- |
| COc1ccccc1-c1nnc([C@H]2CCN(CC3CCCCC3)C2)o1 | inconclusive: 100 µM [inhibitor, partial curve, poor fit] |
| CCOc1ccccc1NC(=O)N1CCC(N2CC(OCC3CC3)C23CCOCC3)CC1 (configuration not stated) | inactive |
| CCCCCC(=O)N1CC(=O)N(Cc2c(OC)cccc2OC)CC(O)C1 (configuration not stated) | inconclusive: 79.4 µM [inhibitor, partial curve] |
| O=C(c1cc(C2CC2)nc2onc(C3CCCN3)c12)N1CCC(F)CC1 (configuration not stated) | inactive |
| CN1C(=O)C(CC(=O)Nc2ccccc2)=C2CCCCC21 (configuration not stated) | inactive |
| COc1ccc2ccc(OCc3nc(C(=O)N4CCCC(C(N)=O)C4)co3)cc2c1 (configuration not stated) | inconclusive: 39.8 µM [inhibitor, full curve, poor fit] |
| O=C(c1ccccc1)N1CCCC(C(=O)N2CCC(c3ccccc3)CC2)C1 (configuration not stated) | inconclusive: 50.1 µM [inhibitor, partial curve, poor fit] |
| O=C(NCCc1ccc(Cl)cc1)c1nc(-c2ccc(Cl)nc2)c2ccccn12 | inconclusive: 39.8 µM [inhibitor, full curve] |
| O=C(NC1CCCN(c2cc(-c3ccc(F)cc3)[nH]n2)C1)c1cc(Cl)ccc1F (configuration not stated) | inconclusive: 31.6 µM [inhibitor, full curve] |
| O=C(C[C@@H]1CCNC[C@@H]1Cc1cc(-c2ccccc2)on1)N1CCc2ccccc2C1 | active: 39.8 µM |
| OC[C@@H]1CN(Cc2ccccc2)C[C@H]1c1nc(-c2ccncc2)no1 | inconclusive: 50.1 µM [inhibitor, partial curve, poor fit] |
| O=c1cc(N2CCOCC2)oc2c(NCc3cnccn3)nccc12 | inactive |
| Cc1noc(C)c1[S+](=O)([O-])NC1CCN(C(=O)c2ccc(-c3ncccc3C#N)cc2)CC1 | inactive |
| O=C(CN1C(=O)NC(c2ccc(Cl)cc2)C2=C1COC2=O)NCc1ccccc1Cl (configuration not stated) | active: 35.5 µM |
| CN(C)c1ccc(C(=O)NC2CCN(c3cc(-c4ccc(F)cc4)[nH]n3)C2)cc1 (configuration not stated) | inconclusive: 50.1 µM [inhibitor, partial curve, poor fit] |
| COc1cccc(CN2C(=O)OC3(CCN(Cc4ccc(F)cc4)CC3)C2(C)c2cccnc2)c1 (configuration not stated) | inconclusive: 79.4 µM [inhibitor, partial curve, poor fit] |
| CCC1Oc2ccc(NC(=O)c3ccc([N+](=O)[O-])cc3)cc2CN(Cc2ccccc2)C1=O (configuration not stated) | inactive |
| CC(C)c1noc(-c2cccn3c(CNC(=O)c4cccc(F)c4)nnc23)n1 | inactive |
| O=S(=O)(c1cccc(F)c1)N1CCC(OC2CCN(Cc3ccccc3)CC2)CC1 | inactive |
| Cc1ccc(C2NC(=O)N(CC(=O)NCCCc3ccccc3)C3=C2C(=O)OC3)cc1 (configuration not stated) | inconclusive: 50.1 µM [inhibitor, partial curve, poor fit] |
| CC(C)(C)OC(=O)N1CC(Nc2ccc(Oc3ccccc3)cc2)C1 | active: 89.1 µM |
